The text below walks through data of article PMC8325870, “SUMOylated non-canonical polycomb PRC1.6 complex as a prerequisite for recruitment of transcription factor RBPJ”.

Amino acid sequences for entries named in this document (tags omitted). A change or cut given only in a name is not applied to a line headed by its entry. Residues count along the entry.
UniProt P31266: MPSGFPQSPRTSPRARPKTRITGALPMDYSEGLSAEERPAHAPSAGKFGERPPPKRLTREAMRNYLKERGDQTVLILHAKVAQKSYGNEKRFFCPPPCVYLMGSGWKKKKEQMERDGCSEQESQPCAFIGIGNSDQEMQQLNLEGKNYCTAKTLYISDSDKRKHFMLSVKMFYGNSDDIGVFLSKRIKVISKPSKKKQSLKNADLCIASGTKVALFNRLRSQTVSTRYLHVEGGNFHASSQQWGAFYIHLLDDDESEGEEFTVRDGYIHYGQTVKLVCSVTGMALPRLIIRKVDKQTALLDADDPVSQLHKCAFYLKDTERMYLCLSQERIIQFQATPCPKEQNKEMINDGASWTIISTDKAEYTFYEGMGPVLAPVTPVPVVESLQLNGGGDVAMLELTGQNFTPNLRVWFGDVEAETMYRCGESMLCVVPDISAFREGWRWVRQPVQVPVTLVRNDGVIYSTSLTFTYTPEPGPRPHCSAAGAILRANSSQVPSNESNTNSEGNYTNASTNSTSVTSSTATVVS
UniProt P61956: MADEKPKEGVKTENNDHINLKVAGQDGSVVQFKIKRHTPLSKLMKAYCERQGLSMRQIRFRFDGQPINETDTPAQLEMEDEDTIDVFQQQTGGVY
UniProt P55854, residues 1-92: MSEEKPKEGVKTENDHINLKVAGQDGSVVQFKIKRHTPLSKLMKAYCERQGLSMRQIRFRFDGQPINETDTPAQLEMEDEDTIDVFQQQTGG
UniProt P63165, residues 1-97: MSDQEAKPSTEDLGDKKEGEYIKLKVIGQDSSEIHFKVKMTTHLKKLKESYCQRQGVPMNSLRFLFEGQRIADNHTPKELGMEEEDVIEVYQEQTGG
UniProt Q969R5: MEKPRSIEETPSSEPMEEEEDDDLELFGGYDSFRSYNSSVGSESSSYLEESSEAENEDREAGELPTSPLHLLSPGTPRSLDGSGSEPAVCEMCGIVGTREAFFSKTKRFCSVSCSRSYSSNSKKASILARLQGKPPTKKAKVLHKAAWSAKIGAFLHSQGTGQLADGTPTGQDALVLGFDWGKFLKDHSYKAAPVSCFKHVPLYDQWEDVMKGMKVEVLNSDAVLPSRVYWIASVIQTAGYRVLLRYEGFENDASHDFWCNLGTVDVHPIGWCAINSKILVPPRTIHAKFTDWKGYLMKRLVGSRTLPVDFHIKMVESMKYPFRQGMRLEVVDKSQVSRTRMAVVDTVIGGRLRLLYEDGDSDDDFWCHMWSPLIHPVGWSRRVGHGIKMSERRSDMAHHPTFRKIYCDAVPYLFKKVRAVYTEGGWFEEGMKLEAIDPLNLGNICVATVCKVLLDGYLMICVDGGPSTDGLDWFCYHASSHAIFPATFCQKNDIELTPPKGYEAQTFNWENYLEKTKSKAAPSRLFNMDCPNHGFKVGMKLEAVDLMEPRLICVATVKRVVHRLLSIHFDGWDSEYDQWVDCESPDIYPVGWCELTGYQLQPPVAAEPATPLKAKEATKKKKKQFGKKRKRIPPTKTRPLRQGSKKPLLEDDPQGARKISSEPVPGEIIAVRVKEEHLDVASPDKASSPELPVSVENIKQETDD
UniProt P59178: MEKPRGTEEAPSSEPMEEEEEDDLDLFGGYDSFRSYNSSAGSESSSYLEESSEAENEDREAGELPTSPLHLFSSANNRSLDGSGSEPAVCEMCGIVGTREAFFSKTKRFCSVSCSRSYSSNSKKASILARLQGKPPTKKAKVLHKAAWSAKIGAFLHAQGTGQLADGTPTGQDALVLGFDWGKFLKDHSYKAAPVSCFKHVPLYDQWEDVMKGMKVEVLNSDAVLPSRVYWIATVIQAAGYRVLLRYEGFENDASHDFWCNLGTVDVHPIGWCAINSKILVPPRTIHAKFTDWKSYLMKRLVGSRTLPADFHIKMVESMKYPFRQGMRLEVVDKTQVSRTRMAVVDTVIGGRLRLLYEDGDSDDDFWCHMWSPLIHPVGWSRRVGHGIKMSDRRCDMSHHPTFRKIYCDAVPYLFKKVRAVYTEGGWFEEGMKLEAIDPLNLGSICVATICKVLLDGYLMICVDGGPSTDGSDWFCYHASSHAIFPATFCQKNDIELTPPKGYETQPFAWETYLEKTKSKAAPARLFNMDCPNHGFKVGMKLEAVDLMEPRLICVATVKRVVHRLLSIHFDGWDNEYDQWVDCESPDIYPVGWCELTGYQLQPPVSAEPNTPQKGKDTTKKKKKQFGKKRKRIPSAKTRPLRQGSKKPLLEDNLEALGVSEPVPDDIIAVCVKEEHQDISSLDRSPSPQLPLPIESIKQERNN
UniProt Q06330: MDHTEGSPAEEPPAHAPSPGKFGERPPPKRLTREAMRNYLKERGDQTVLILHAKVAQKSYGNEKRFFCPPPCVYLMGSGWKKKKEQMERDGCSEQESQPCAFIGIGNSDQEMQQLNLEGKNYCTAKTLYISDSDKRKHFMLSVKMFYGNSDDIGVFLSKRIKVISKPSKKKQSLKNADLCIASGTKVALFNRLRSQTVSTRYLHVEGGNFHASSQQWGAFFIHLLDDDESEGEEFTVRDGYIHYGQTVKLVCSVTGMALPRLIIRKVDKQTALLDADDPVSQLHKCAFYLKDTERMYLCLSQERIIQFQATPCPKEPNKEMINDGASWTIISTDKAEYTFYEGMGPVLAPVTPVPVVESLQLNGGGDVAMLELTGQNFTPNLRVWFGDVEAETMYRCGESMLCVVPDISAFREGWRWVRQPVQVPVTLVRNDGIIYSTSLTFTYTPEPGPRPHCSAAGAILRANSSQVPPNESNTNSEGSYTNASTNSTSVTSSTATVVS

These are yes or no findings as the source states them, for the method shown. Binding seen in cells or lysates may run through a third protein. Some results given as binding are weak or reduced against the parent protein; the word gives no strength.

Assay [1] concerns the target GST-RBPJ fusion protein (not stated (human or mouse cDNA cloned)) (UniProt P31266). In words: pull-down; GST or GST fusion protein immobilized on Glutathione Sepharose beads; [35S] methionine-labelled protein in vitro translated in rabbit reticulocyte lysate; buffer A (40 mM HEPES pH 7.5, 0.2 mM EDTA, 5 mM MgCl2, 100 mM KCl, 0.5% NP-40) 1 h at 4 °C; washes up to 300 mM KCl; SDS-PAGE and autoradiography; only the target purified.

In assay [2] the target is GFP-RBPJ wild type (mouse) (UniProt P31266). In words: co-IP; HEK293T cells transfected with the GFP fusion (with or without a Flag-tagged partner); extracts (10 mM Tris/HCl pH 7.5, 150 mM NaCl, 0.5 mM EDTA, 0.5% NP-40) on GFP TRAP beads 1 h at 4 °C; Western blotting; in some panels cells treated with 10 µM ML-792 or vehicle for 24 h, or heat shocked (1 h 42 °C, 1 h recovery at 37 °C). Background: In western blotting, separated proteins are transferred to a membrane and probed.

The target of another assay is GST-SUMO2 (UniProt P61956). In words: pull-down; Modified GST pulldown: GST or GST-SUMO fusion proteins immobilized on Glutathione Sepharose beads; whole cell extract of transfected HEK293T cells added for 4 h at 4 °C; five washes in ice cold PBS; Western blotting; only the target purified.
A further assay addresses GST-SUMO3 (UniProt P55854). Described as above.
For the next assay, the target named is GST-SUMO1 (UniProt P63165). Described as above.
For the next assay, the target named is GST-L3MBTL2 (UniProt Q969R5). In words: pull-down; GST or GST fusion protein immobilized on Glutathione Sepharose beads; [35S] methionine-labelled protein in vitro translated in rabbit reticulocyte lysate; buffer A (40 mM HEPES pH 7.5, 0.2 mM EDTA, 5 mM MgCl2, 100 mM KCl, 0.5% NP-40) 1 h at 4 °C; washes up to 300 mM KCl; SDS-PAGE and autoradiography; only the target purified.

Assay [3] concerns the target Endogenous L3MBTL2 (mouse Beko T-ALL cells) (mouse (endogenous in Beko)) (UniProt P59178). In words: co-IP; Protein extracts of mouse Beko cell lysates immunoprecipitated with L3MBTL2 antibody or IgG as control; Western blotting with anti-L3MBTL2 and anti-RBPJ antibody; endogenous proteins.

In the case of “L3MBTL2 ΔN (aa179-705) (from UniProt Q969R5 179-705) (domain or fragment)”, the binding entry in assay [1] is recorded as “binds”.

In the case of “Flag-L3MBTL2 (from UniProt Q969R5 1-705)”, in assay [2], the binding entry is listed as “binds”.

Consider Flag-RBPJ (from UniProt P31266 1-526), for which the binding entry with GST-SUMO2 is recorded as “binds”; with GST-SUMO3 it was “binds”; with GST-SUMO1, “binds weakly”.

In the case of “GFP-RBPJ wild type (from UniProt P31266 1-526)”, in the assay with GST-SUMO2, the binding result is “binds”.

On to “Endogenous L3MBTL2 (HEK293T) (from UniProt Q969R5 1-705)”, for which the binding entry in assay [2] was “binds”.

In the case of “[35S] methionine-labelled RBPJ (from UniProt Q06330 1-500)”, in the assay with GST-L3MBTL2, the binding entry is “binds”.

Consider “Endogenous RBPJ (mouse Beko T-ALL cells) (from UniProt P31266 1-526)”, for which, in assay [3], the binding result was “binds”.

“L3MBTL2 ΔC (aa1-603) (from UniProt Q969R5 1-603) (domain or fragment)”: the binding result in assay [1] is “binds”.

Regarding “GFP-RBPJ ∆NTD mutant (from UniProt P31266 206-526) (domain or fragment)”, in the assay with GST-SUMO2, the binding entry is “no binding”.
